# PubChem BioAssay AID1768 (National Center for Advancing Translational Sciences (NCATS), 2009)
# About 620 (0.23%) of roughly 270,000 compounds were called active. The inconclusive results got no clear call from the source; some entries with a clear call stand among them for comparison. Calls follow the shape of the dose curve; as a rule, active = well fitted inhibition curve with a large enough effect in the polarisation, with a control signal flat (not every such curve was filed as active); inconclusive = small, poorly fitted or top-dose-only effect, or effect the other way, or a change in a side signal; inactive = no such curve, though single readings can be large or run the other way; the % refers to the polarisation. A potency beside an inconclusive call is a rough fit, not a confirmed value. A note “side channel” means that the fit belongs to a control or component signal, not to the main read-out.
# Target: Menin (Homo sapiens) (UniProt O00255)
# Sequence of UniProt O00255 (O00255 whole entry, looked up): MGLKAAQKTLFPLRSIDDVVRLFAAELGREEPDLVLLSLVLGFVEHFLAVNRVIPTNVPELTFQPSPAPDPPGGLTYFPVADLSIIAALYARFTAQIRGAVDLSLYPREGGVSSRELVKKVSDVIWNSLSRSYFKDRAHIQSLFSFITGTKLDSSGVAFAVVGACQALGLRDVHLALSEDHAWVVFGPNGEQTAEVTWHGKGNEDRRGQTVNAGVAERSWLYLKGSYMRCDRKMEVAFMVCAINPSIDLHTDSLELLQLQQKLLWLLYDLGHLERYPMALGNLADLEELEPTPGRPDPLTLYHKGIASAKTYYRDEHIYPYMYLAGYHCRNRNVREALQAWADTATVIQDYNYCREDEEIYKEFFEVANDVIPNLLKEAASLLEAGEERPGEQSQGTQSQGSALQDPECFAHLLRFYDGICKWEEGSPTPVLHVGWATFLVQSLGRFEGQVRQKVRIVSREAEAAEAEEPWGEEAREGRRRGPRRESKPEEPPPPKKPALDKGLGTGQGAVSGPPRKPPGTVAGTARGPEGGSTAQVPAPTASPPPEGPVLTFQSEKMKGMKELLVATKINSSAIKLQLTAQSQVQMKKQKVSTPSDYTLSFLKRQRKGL
# Experiment: qHTS Assay for Inhibitors Targeting the Menin-MLL Interaction in MLL Related Leukemias: Competition With Texas Red Labeled MLL-derived Mutant Peptide; as to FP activity change, negative = inhibition: % of control where 0% means no effect
# Conditions: fluorescence polarization; FP activity change, negative = inhibition: at 61.6 µM (top of the series)
# Potency is read from the fitted curve at half-maximal effect; tags tell the direction and shape of the fitted curve or compound fluorescence and quenching.
Compound,Potency,"FP activity change, negative = inhibition"
COc1ccc(NC(=O)c2cc(C)no2)cc1OC,"inconclusive: 5.01 µM [quencher, side channel, full curve]",
Cc1cc(C)nc(SCCCn2c(=O)[nH]c3ccccc32)n1,,inactive: -6.94%
N=C1C(c2nc(-c3ccc(Br)cc3)cs2)=C(O)CN1NC(=O)c1ccc([N+](=O)[O-])cc1,"inconclusive: 7.08 µM [quencher, side channel, partial curve]",
N=c1sccn1CC(=O)Nc1ccccc1Sc1ccccc1,"inconclusive: 25.1 µM [fluorescent, side channel, single point]",
O=C1/C(=C/c2ccc([N+](=O)[O-])cc2)Oc2cc(O)ccc21,"inconclusive: 10 µM [quencher, partial curve]",
CCCCCn1nc(C(=O)OCC(=O)c2c(N)n(C)c(=O)n(C)c2=O)c2ccccc2c1=O,"inconclusive: 2.24 µM [quencher, side channel, partial curve]",
O=C(CN1C(=O)/C(=C/c2cccc(Br)c2)SC1=S)Nc1cccnc1,"inconclusive: 20 µM [quencher, side channel, partial curve]",
COc1ccc2[nH]c(C)c(CCN(Cc3cccs3)C(=S)Nc3cccc(F)c3)c2c1,"inconclusive: 8.91 µM [quencher, side channel, full curve]",
CN(C)S(=O)(=O)Nc1cccc(-c2cn3c(n2)SCC3)c1,"inconclusive: 0.891 µM [quencher, side channel, full curve]",
CCN1C(=O)C(CC(=O)Nc2ccc(OC)cc2)N(Cc2ccc3c(c2)OCO3)C1=S (configuration not stated),"inconclusive: 20 µM [quencher, side channel, partial curve]",
COc1cc2c(C#N)c(N3CCOCC3)nc(N)c2c(N)n1,,inactive: -0.458%
O=C(Nc1ncc(Cc2ccccc2Cl)s1)C1CCCO1 (configuration not stated),,inactive: 25.3%
Cc1cc(C)c(-c2cc(C(=O)Nc3cc(C)ccc3C)[nH]n2)c(O)c1,"inconclusive: 35.5 µM [fluorescent, side channel, single point]",
CN(C)C(CNS(=O)(=O)c1ccc2ccccc2c1)c1ccccc1 (configuration not stated),"inconclusive: 39.8 µM [fluorescent, side channel, single point]",
CS(=O)(=O)Nc1cccc(C2=NN(C(=O)c3cccc([N+](=O)[O-])c3)C(c3cccs3)C2)c1 (configuration not stated),"inconclusive: 25.1 µM [quencher, partial curve]",
CCN(c1ccc(F)cc1)S(=O)(=O)c1ccc2[nH]cc(C(=O)NCCCN3CCOCC3)c(=O)c2c1,,inactive: -0.484%
COC(=O)Nc1ccc(SCC(=O)c2ccc(Cl)cc2)cc1,"inconclusive: 22.4 µM [quencher, side channel, single point]",
